# Experimental data reported in paper PMC6919601, “Identification of Plasmodium dipeptidyl aminopeptidase allosteric inhibitors by high throughput screening” (PLoS ONE, 2019).
# In all, about 110,000 compounds went through this assay and about 230 (0.21%) showed an effect of 50% or more. The list shows a part of the results.
# Molecular target: DPAP1 (Plasmodium falciparum, UniProt Q8IIJ9)
# Experiment: primary screen, percent inhibition; read by cleavage of a fluorogenic dipeptide substrate; higher = more effect of the substance
# Set-up: species or system P. falciparum D10 trophozoite lysates; single well
# 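Also: 30 min substrate incubation versus DMSO and 10 µM JCP410 controls.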
# Sequence of DPAP1 (Q8IIJ9 whole entry, looked up): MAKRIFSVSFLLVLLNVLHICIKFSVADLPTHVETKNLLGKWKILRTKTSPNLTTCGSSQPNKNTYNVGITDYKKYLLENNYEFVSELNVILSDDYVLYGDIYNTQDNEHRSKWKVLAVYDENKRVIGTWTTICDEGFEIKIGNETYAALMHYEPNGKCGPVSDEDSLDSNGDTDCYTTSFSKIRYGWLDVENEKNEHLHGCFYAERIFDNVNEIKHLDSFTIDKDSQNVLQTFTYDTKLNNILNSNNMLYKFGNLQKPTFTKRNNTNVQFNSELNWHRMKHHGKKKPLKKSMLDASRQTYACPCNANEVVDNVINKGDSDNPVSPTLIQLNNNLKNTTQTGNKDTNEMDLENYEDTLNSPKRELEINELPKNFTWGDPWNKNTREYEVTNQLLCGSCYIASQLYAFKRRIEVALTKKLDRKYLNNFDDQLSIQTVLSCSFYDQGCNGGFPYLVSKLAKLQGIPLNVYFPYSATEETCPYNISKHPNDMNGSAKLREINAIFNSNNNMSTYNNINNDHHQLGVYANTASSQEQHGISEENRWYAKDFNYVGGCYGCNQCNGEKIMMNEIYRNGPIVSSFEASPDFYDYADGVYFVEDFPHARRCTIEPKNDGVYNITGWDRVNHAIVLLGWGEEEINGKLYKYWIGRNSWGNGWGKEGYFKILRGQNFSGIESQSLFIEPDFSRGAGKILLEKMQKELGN
row,SMILES,% Inhibition @ 10 uM [%]
1,N#CC1=C(N)Oc2[nH]nc(C(F)(F)F)c2C1c1cccnc1 (centres unmarked),-2.53
2,CC(=O)Nc1ccc(Oc2cccc(Cl)c2Cl)c(Cl)c1,-0.424
3,NS(=O)(=O)c1ccc(-n2c(S)nnc2-c2ccc3ccccc3n2)cc1,5.5
4,COc1ccccc1C(=O)Nc1ccc2oc(-c3cccnc3)nc2c1,3.53
5,Cc1nc2sccn2c(=O)c1S(=O)(=O)N1CCC(Cc2ccccc2)CC1,-4.95
6,Cc1cc(Br)ccc1OCC(=O)NCCC1=CCCCC1,-0.473
7,COc1ccccc1CNC(=O)CN(C)S(=O)(=O)c1ccc2[nH]c3c(c2c1)CCCC3,0.95
8,CCOC(=O)c1c(C)c(-c2ccccc2)n(CC(=O)NC2CCN(C(=O)OCC)CC2)c1C,-1.66
9,CC(C)n1c(CCCO)nc2ccccc21,7.86
10,Cc1ccc(-c2noc(CCC(=O)N3CCN(Cc4ccccc4)CC3)n2)cc1,5.1
11,CCOC(=O)C1=C(CSc2nc(C)c(CCSC)[nH]2)NC(=O)NC1c1ccc2c(c1)OCO2 (centres unmarked),1.32
12,Cc1c(Cl)cccc1-n1ncc(C(=O)O)c1C1CCNCC1,-2.83
13,CCOC(=O)C1=CN(C)C=C(C(=O)OCC)C1c1ccccc1OC,-5.05
14,O=C(NCc1ccco1)c1ccc(CS(=O)Cc2ccc(Cl)cc2)o1 (centres unmarked),-0.716
15,COc1ccc(CNC2CCCCC2)c(OC)c1,1.92
16,CC1=NN(Cc2c(C)nn(Cc3ccccc3)c2C)C(C)(C)C1,16
17,Oc1ccc2ccccc2c1CN1CCCCCC1,2.6
18,O=C(CCSc1cccc2cccnc12)Nc1ccc(Cl)cc1,-1.63
19,CCOC(=O)c1c(C)[nH]c(C)c1S(=O)(=O)NCC(=O)N1CCn2c1nc1ccccc12,-0.518
20,CCn1nc(-c2cc(Br)cs2)nc2c(=O)n(C)c(=O)nc1-2,2.19
21,Cc1ccc(C(=O)N(Cc2ccccc2)Cc2ccccc2)cc1,-3.04
22,FC(F)(F)c1nc(NCc2cccs2)nc2c1CCCCC2,-0.972
23,Cc1ccccc1Cn1c2ccccc2c2cnn(CC(=O)NC(C)C)c(=O)c21,3.4
24,COc1cc(C(=O)OCCn2c(=O)c3c(ncn3CCCN(C)C)n(C)c2=O)cc(OC)c1OC,-8.69
25,Cc1cc(C)c2ccc(/C=C/c3ccccc3N)nc2c1O,1.83

row,SMILES,% Inhibition @ 10 uM [%]
1,COc1ccc2c(c1OC)C(O)OC2C1c2c(cc3c(c2OC)OCO3)CCN1C (centres unmarked),0.709
2,O=C(NC(Cc1c[nH]c2ccccc12)C(=O)NC1CCCCC1)OCc1ccccc1 (centres unmarked),-3.96
3,COc1ccc(Cl)cc1NC1=C(Cl)C(=O)N(Cc2ccccc2)C1=O,-1.07
4,Cc1ccc(C)c(S(=O)(=O)/N=C2\C=C(NS(=O)(=O)c3ccccc3)C(=O)c3ccccc32)c1,-5.2
5,O=C(NCCc1ccccc1)c1ccccc1Cl,6.8
6,COc1ccc(-c2nc(CN3CCC(C(=O)NCC4CCCO4)CC3)c(C)o2)cc1OC (centres unmarked),2.37
7,CCOC(=O)N1CCN(S(=O)(=O)c2cc(Cl)c(OC)cc2Cl)CC1,1.03
8,COc1ccc(-c2cn3c(C)c(C(=O)N4CCc5ccccc5C4)sc3n2)cc1,1.55
9,COc1ccc(OC)c(CN2CCN(Cc3cccc(OC)c3OC)CC2)c1,0.992
10,Cn1cccc1Cc1nnc(SCC(=O)NCc2ccccc2)n1C,-2.45
11,CCc1sc(C2C(C#N)=C(N)Oc3[nH]nc(C)c32)cc1Br (centres unmarked),-10.3
12,Cc1nsc2ccc3ccsc3c12,3.36
13,NC(=O)c1c(NC(=O)C2CCCCC2)sc2c1CCCC2,7.76
14,Brc1ccc(-c2nc(Cc3ccccc3)no2)cc1,5.68
15,CCOc1ccccc1C(=O)Nc1c(-c2ccc(OC)cc2)nc2cc(C)ccn12,9.6
16,CCOc1ccc(-c2cc(NC(=O)Cn3ncc4c3-c3ccccc3OC4)on2)cc1,0.981
17,CCCCNC(=O)C(C)n1nc(C)c2c(C)n(-c3ccccc3)nc2c1=O (centres unmarked),3.33
18,CSc1nc2c(c(=O)n1-c1ccccc1)C1(CCCCC1)Cc1ccccc1-2,-5.62
19,Cc1ccc(S(=O)(=O)N2CCC(C(=O)N3CCCC(C)C3)CC2)cc1 (centres unmarked),-2.87
20,CSc1cc(S(=O)(=O)c2ccc(Cl)c(SC)c2)ccc1Cl,1.24
21,O=C(C1=C(O)C(=O)N(CCO)C1c1ccc(F)cc1)c1ccc(Cl)cc1 (centres unmarked),-2.32
22,COc1ccc(-c2nc(O)c3c(n2)Oc2ccc(Cl)cc2C3)cc1,-1.06
23,Brc1ccc(-c2csc(-c3ccncc3)n2)cc1,-2.92
24,COc1ccccc1/C=C/C(=O)c1ccsc1,1.87
25,COc1cc(OC)c2c(-c3ccccc3)cc(=O)oc2c1,4.67
